Sequences and labels used below:
B1: PhoQ; a variant is named by its letters at X, in order, P23837 (parent)
chain: MKKLLRLFFPLSLRVRFLLATAAVVLVLSLAYGMVALIGYSVSFDKTTFRLLRGESNLFYTLAKWENNKLHVELPENIDKQSPTMTLIYDENGQLLWAQRDVPWLMKMIQPDWLKSNGFHEIEADVNDTSLLLSGDHSIQQQLQEVREDDDDAEMTHSVAVNVYPATSRMPKLTIVVVDTIPVELKSSYMVWSWFIYVLSANLLLVIPLLWVAAWWSLRPIEALAKEVRELEEHNRELLNPATTRELTSLVRNLNRLLKSERERYDKYRTTLTDLTHSLKTPLXXLQXXLRSLRSEKMSVSDAEPVMLEQISRISQQIGYYLHRASMRGGTLLSRELHPVAPLLDNLTSALNKVYQRKGVNISLDISPEISFVGEQNDFVEVMGNVLDNACKYCLEFVEISARQTDEHLYIVVEDDGPGIPLSKREVIFDRGQRVDTLRPGQGVGLAVAREITEQYEGKIVAGESMLGGARMEVIFGRQHSAPKDE

The other results are listed elsewhere or left out.

Variants of B1 are the subject of the test. Description: enrichment ratio after two sorts for PhoP signalling (ratio (wild type AVST 3.29)); higher = more functional. The following applies: with PhoP (E. coli).
Turning to NNTD, the enrichment ratio is no more than 0.25.
As to IFPD, the enrichment ratio was no more than 0.25.
As for RGKC, the figure is no more than 0.25; as for SIIM, 0.917; as for FTHN, no more than 0.25.
The value for STNM was 11.4; that for ANYI was no more than 0.25; that for YSDA was no more than 0.25.
The value for DDMA was no more than 0.25.
In the case of RKQS, the enrichment ratio was no more than 0.25.
As for LFDI, the figure is no more than 0.25; as for GQYL, no more than 0.25.
Regarding FQKL, the enrichment ratio is no more than 0.25.
The value for PLSS was no more than 0.25; that for ACPT was no more than 0.25.
The value for GQQW was no more than 0.25; that for VPKY was no more than 0.25; that for VQPL was no more than 0.25.
Turning to MQIP, the enrichment ratio is no more than 0.25.
The value for PEAQ was no more than 0.25; that for FPNC was no more than 0.25; that for MLRP was no more than 0.25.
In the case of GGLY, the enrichment ratio came to 9.96.
As for ICAR, the figure is no more than 0.25.
For the variant TDSS, the enrichment ratio turned out to be 8.58.
The value for NSIS was no more than 0.25; that for MGDF was no more than 0.25; that for MKTC was no more than 0.25.
The value for FKTK was no more than 0.25.
As for KRYR, the enrichment ratio is no more than 0.25.
As for NTSR, the figure is no more than 0.25.
The value for NYIK was no more than 0.25.
As for DCRI, the figure is no more than 0.25.
As to VWWF, the enrichment ratio is no more than 0.25.
Consider YECY, for which the enrichment ratio is 0.863.
On to RKTQ, for which the enrichment ratio is no more than 0.25.
Turning to FGLI, the enrichment ratio amounted to 7.83.
The value for KTNV was no more than 0.25.
The value for IDFA was no more than 0.25; that for EYLK was no more than 0.25; that for AQDD was no more than 0.25.
As for LFGH, the figure is no more than 0.25.
EYRK: the enrichment ratio is no more than 0.25.
As for RCAL, the figure is no more than 0.25; as for ERIK, no more than 0.25; as for HRWD, no more than 0.25.
As for SFHT, the figure is no more than 0.25; as for FDNE, no more than 0.25; as for TWPK, 0.57.
As for HTND, the figure is no more than 0.25.
Regarding QNNW, the enrichment ratio was no more than 0.25.
The value for GYNN was no more than 0.25.
As for IYWH, the figure is no more than 0.25.
As for DCWT, the figure is no more than 0.25; as for FIPH, no more than 0.25; as for LFLG, no more than 0.25.
On to QTGP, for which the enrichment ratio is no more than 0.25.
The value for VEVY was no more than 0.25; that for FWLE was no more than 0.25.
For the variant VHFY, the enrichment ratio was no more than 0.25.
The value for WEQY was no more than 0.25.
Take FEIQ: the enrichment ratio worked out at 1.57.
The value for PNAI was no more than 0.25; that for GLGG was no more than 0.25.
The value for VMAF was no more than 0.25; that for SFVT was no more than 0.25; that for HDWN was no more than 0.25.
On to FSIN, for which the enrichment ratio was no more than 0.25.
Turning to AIAT, the enrichment ratio was 19.3.
As for GLGI, the figure is 0.662.
As for VWFD, the figure is no more than 0.25; as for AFHK, no more than 0.25.
The value for LVRN was no more than 0.25.
As to AHEN, the enrichment ratio is no more than 0.25.
Consider PIDE, for which the enrichment ratio was no more than 0.25.
As for PLSG, the figure is no more than 0.25.
As to DCST, the enrichment ratio is no more than 0.25.
Consider GKPD, for which the enrichment ratio was no more than 0.25.
In the case of HRLM, the enrichment ratio was no more than 0.25.
As for GDVD, the figure is no more than 0.25; as for ANQA, no more than 0.25; as for IDSN, no more than 0.25.
In the case of HIVL, the enrichment ratio was found to be 0.399.
Consider HIGL, for which the enrichment ratio was no more than 0.25.
With QRAC, the enrichment ratio was no more than 0.25.
As for TGPN, the figure is 2.28.
As for HVKP, the figure is no more than 0.25.
As for AFVN, the figure is no more than 0.25.
Turning to PWNG, the enrichment ratio was no more than 0.25.
As for PNMR, the figure is no more than 0.25; as for TDLH, 11.1.
As for GRQS, the figure is no more than 0.25; as for SNGC, 10.7.
The value for SSKQ was no more than 0.25; that for VDKP was no more than 0.25; that for MHMF was no more than 0.25.
Consider QLPR, for which the enrichment ratio is no more than 0.25.
As for IIVA, the figure is no more than 0.25; as for ENMP, no more than 0.25.
DEHF: the enrichment ratio is no more than 0.25.
The value for SDFP was no more than 0.25.
The value for MCTR was no more than 0.25; that for IPYH was no more than 0.25; that for MNYW was no more than 0.25.
The value for IQGA was no more than 0.25.
Turning to QASN, the enrichment ratio stood at 11.4.
As for TGGW, the figure is no more than 0.25.
Consider RSAL, for which the enrichment ratio is no more than 0.25.
As for MYRH, the figure is no more than 0.25.
As for DNFP, the figure is no more than 0.25; as for LWVI, no more than 0.25.
As for IGTE, the figure is no more than 0.25; as for DPPR, no more than 0.25.
GNFF: the enrichment ratio is no more than 0.25.
The value for WPRD was no more than 0.25.
As for EYWL, the figure is no more than 0.25; as for PPDN, no more than 0.25; as for VGIV, no more than 0.25.
The value for YGDR was no more than 0.25.
With MLVH, the enrichment ratio is no more than 0.25.
The value for ATQL was 0.667; that for ANNG was no more than 0.25.
As for RKAN, the figure is no more than 0.25; as for CIVH, no more than 0.25; as for MKTR, no more than 0.25.
As for TSAD, the figure is 2.17; as for EGHA, no more than 0.25; as for HEAF, no more than 0.25.
On to ISTA, for which the enrichment ratio is no more than 0.25.
As for TAEV, the figure is no more than 0.25.
The value for YKNM was no more than 0.25; that for TYIK was no more than 0.25.
As for SDRY, the figure is no more than 0.25; as for HDFI, no more than 0.25; as for FCFW, no more than 0.25.
With MIAI, the enrichment ratio was 6.65.
As for THFG, the figure is no more than 0.25; as for DFAF, no more than 0.25; as for FAQL, no more than 0.25.
As for TGTS, the figure is 10.1.
As for SNGS, the figure is 9.33; as for SVHK, no more than 0.25; as for GNEP, no more than 0.25.
Take KCQH: the enrichment ratio is no more than 0.25.
As for TAQI, the figure is 23.7.
As for YRQK, the figure is no more than 0.25.
The value for DHRA was no more than 0.25; that for PPLI was no more than 0.25; that for KPPV was no more than 0.25.
For LWWQ, the enrichment ratio is no more than 0.25.
The value for NWYK was no more than 0.25; that for FDPP was no more than 0.25.
As for MTWA, the figure is no more than 0.25.
As for IRVV, the figure is no more than 0.25; as for EGHI, no more than 0.25.
On to WGMS, for which the enrichment ratio is no more than 0.25.
Regarding SAPE, the enrichment ratio is no more than 0.25.
The value for VFQL was no more than 0.25.
The value for RGYS was no more than 0.25; that for PRLY was no more than 0.25; that for SDMY was no more than 0.25.
As for EEGI, the figure is no more than 0.25; as for RTFT, 0.297.
In the case of EGNE, the enrichment ratio is no more than 0.25.
Turning to FYNP, the enrichment ratio was no more than 0.25.
The value for IAQV was no more than 0.25; that for KQMF was no more than 0.25.
As for MCFN, the figure is 4.25.
The value for WTFR was no more than 0.25.
With PCAW, the enrichment ratio is no more than 0.25.
The value for QSMT was no more than 0.25.
LSPV: the enrichment ratio was no more than 0.25.
The value for SNWE was no more than 0.25.
The value for YASV was 0.284.
For the variant KNAM, the enrichment ratio was no more than 0.25.
For FKYT, the enrichment ratio was no more than 0.25.
The value for SMLW was no more than 0.25; that for RYQD was no more than 0.25; that for KGWQ was no more than 0.25.
As for GWYC, the enrichment ratio is no more than 0.25.
For the variant FSDW, the enrichment ratio is no more than 0.25.
The value for PFFT was no more than 0.25.
As for KQRV, the figure is no more than 0.25; as for PQWK, no more than 0.25; as for DQVT, no more than 0.25.
The value for WHVL was no more than 0.25; that for WNMI was no more than 0.25.
With KRCS, the enrichment ratio was determined as 2.43.
The value for TGDT was no more than 0.25.
For RWSH, the enrichment ratio is no more than 0.25.
As for IRQA, the figure is no more than 0.25; as for QCEW, no more than 0.25; as for AQFG, no more than 0.25.
The value for IAWI was no more than 0.25; that for TICI was 2.26.

Source of the values: a collection of fitness landscapes (doi:10.1126/science.1257360).
